The campaign covered roughly 420,000 compounds. About 64,000 (15%) were called active. Inconclusive results, whose numbers are uncertain, are shown with a selection of clear calls. Calls come from the whole dose curve; as a rule, active = well fitted inhibition curve with a large enough effect; inconclusive = small, poorly fitted or top-dose-only effect; inactive = flat fitted curve, though single readings scatter. No potency is given beside an inconclusive call; the fits are too rough.
Experiment: qHTS for Inhibitors of human tyrosyl-DNA phosphodiesterase 1 (TDP1): qHTS in cells in absence of CPT; note: nearly all actives have a fitted effect of over 55% in size
Details: DT40 Tdp1-/- hTDP1 cells, no CPT, ATP luminescence, 48 h; activity change, negative = growth inhibition: at 46.2 µM (top of the series) unless noted
In short: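 Growth of hTDP1-complemented DT40 Tdp1-knockout cells is measured by ATP luminescence after at least 48 hr compound exposure at 37 °C, with DMSO substituting for the 20 nM CPT used in the parallel screen.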
% is set by controls: 0 for no effect and ±100 for the full control effect; potency is the fitted concentration of half-maximal effect; tags give direction and shape of the fitted curve.

Row | SMILES | Potency | activity change, negative = growth inhibition
1 | CC(C)Cc1nc2ccc(N)cc2[nH]1 | inactive | –
2 | CC1(C)CC(=O)N(c2ccc(Cl)cc2Cl)C(=O)C1 | inactive | –
3 | Cc1cc2cc(CN(Cc3cccs3)Cc3nnnn3CC3CCCO3)c(=O)[nH]c2cc1C (stereo not drawn) | active: 20.6 µM | –
4 | CCOC(=O)C1(Cc2ccccc2)CCCN(C(=O)COc2ccccc2OC)C1 (stereo not drawn) | active: 13 µM | –
5 | CCCC(C(=O)NC1CCCC1)N(Cc1ccc2c(c1)OCO2)C(=O)c1snc(C(N)=O)c1N (stereo not drawn) | inconclusive [inhibitor, single point] | –
6 | O=C(/C=C/c1ccccc1Cl)NCc1ccccc1 | inactive | –
7 | Cc1cc(Br)ccc1SCC(=O)NCC(c1ccco1)N1CCCCC1 (stereo not drawn) | inconclusive [inhibitor, single point] | –
8 | Cc1cc(Nc2ccccc2)nn1C(=O)c1ccc(Cl)cc1 | inactive | –
9 | O=C(COC(=O)c1ccc2c(c1)C(=O)N(Cc1ccncc1)C2=O)Nc1cccc2ccccc12 | – | inconclusive: -37.1% [inhibitor]
10 | O=C(Nc1ccc(S(=O)(=O)NCc2ccco2)cc1)c1ccc(F)cc1 | inconclusive [inhibitor, partial curve] | –
11 | COC(=O)C1=C(CS(=O)(=O)c2ccc(C)cc2C)NC(=O)NC1c1ccc(C)cc1 (stereo not drawn) | inactive | –
12 | Cc1c(NC(=O)C(C)C)cccc1-c1nc2ncccc2o1 | inactive | –
13 | CCCC1=[N+](CC(=O)c2ccccc2)CCn2cccc21 | active: 25.9 µM | –
14 | Cc1cc(C)c(S(=O)(=O)NCc2ccc3c(c2)CCN3C(=O)c2ccccc2)c(C)c1 | active: 10.3 µM | –
15 | COc1ccccc1CN(Cc1ccco1)S(=O)(=O)c1ccc(-n2cnnn2)c(OC)c1 | inconclusive [inhibitor, single point] | –
16 | O=C(Nc1ccccc1F)c1ccc(Cn2cc(Br)cn2)cc1 | inconclusive [inhibitor, single point] | –
17 | COc1ccc(C(=O)NCC(=O)N/N=C/c2ccc([N+](=O)[O-])s2)cc1OC | active: 16.4 µM | –
18 | O=C(CSCc1ccc(Cl)cc1)Nc1ccc(-c2nnc(-c3ccccc3)o2)cc1 | inconclusive [inhibitor, partial curve] | –
19 | O=C(/C=C/c1ccccc1Cl)Nc1ccc(S(=O)(=O)Nc2ncccn2)cc1 | inactive | –
20 | COc1ccc(C2CC(c3ccc4ccccc4c3OC(C)=O)=NN2C(=O)/C=C/c2ccccc2)cc1 (stereo not drawn) | inconclusive [inhibitor, single point] | –
21 | Cc1ccc(C(=O)N/N=C/c2sc(=O)n(Cc3cccc(C(=O)O)c3)c2Cl)cc1 | inactive | –
22 | COC(=O)c1cc(S(=O)(=O)Nc2cccc(C)c2C)cn1C | inactive | –
23 | CNC(=O)c1ccccc1NC(=O)c1ccco1 | inconclusive [inhibitor, partial curve] | –
24 | O=S(=O)(c1ccc(F)cc1)n1cnc2ccccc21 | inactive | –
25 | NS(=O)(=O)c1ccc(N=Nc2c(=O)[nH]n3c(=O)c4c([nH]c23)CCCC4)cc1 | inactive | –

Row | SMILES | Potency | activity change, negative = growth inhibition
26 | Cc1cc2c(cc1S(=O)(=O)N(CCN(C)C)Cc1ccccc1)OCC(=O)N2 | inconclusive [inhibitor, single point] | –
27 | COc1ccc(/C=N/OC/C(O)=C(\C#N)c2nc3ccccc3[nH]2)cc1 | inactive | –
28 | O=C(NC1CC1)C1=C[C@@H](c2ccc3c(c2)OCO3)C[C@@H](OCc2ccc(CO)cc2)O1 | inconclusive [inhibitor, single point] | –
29 | C=CCn1c(SCC(=O)Nc2ccc(O)cc2)nc2sc(CC)cc2c1=O | inconclusive [inhibitor, single point] | –
30 | CC(=O)N/C(=C\c1ccccc1)C(=O)OC(C)C(=O)NCc1ccccc1 (stereo not drawn) | inactive | –
31 | COc1ccnc(Oc2ccccc2)c1C#N | inactive | –
32 | COc1ccc(CCC(=O)Nc2ccc(N3CCOCC3)c(S(=O)(=O)Nc3ccc(OC)cc3)c2)cc1 | inconclusive [inhibitor, partial curve] | –
33 | Cc1ccc(-c2csc(N=C(N)N)n2)c(C)c1 | inconclusive [inhibitor, single point] | –
34 | COC(=O)c1ccccc1-c1cc(C)cc2c1OC(CNC(=O)C1CCOC1)C2 (stereo not drawn) | – | inconclusive: -30% [inhibitor]
35 | Cc1ccc(-c2cc(C(=O)N3CCOCC3)c3cc(C)ccc3n2)cc1 | inconclusive [inhibitor, single point] | –
36 | COc1ccc(-c2c(=O)n(OCc3nc4ccccc4[nH]3)c3ccccc3[n+]2[O-])cc1 | inconclusive [inhibitor, single point] | –
37 | O=C1CC(c2ccco2)CC(O)=C1C=NCCN1CCN(C(=O)Nc2ccc(Cl)cc2)CC1 (stereo not drawn) | inconclusive [inhibitor, single point] | –
38 | CC1(C(=O)Nc2cccc(C(F)(F)F)c2)Cc2c(-c3cccc(C(N)=O)c3)ccnc2O1 (stereo not drawn) | active: 6.51 µM | –
39 | CC(NCC(=O)Nc1ccccc1C(=O)NC1CC1)c1cccc(C(F)(F)F)c1 (stereo not drawn) | inconclusive [inhibitor, single point] | –
40 | Cc1ccc(OCCCC(=O)Nc2ccc(N3CCOCC3)cc2)cc1 | inactive | –
41 | Cc1ccc2[nH]c(=O)c(C(c3nnnn3C3CCCC3)N3CCCc4ccccc43)cc2c1 (stereo not drawn) | inconclusive [inhibitor, single point] | –
42 | CN(C(=O)c1cccc(NC(=O)Cc2ccc(NC(=O)C3CCN(S(=O)(=O)c4cccc([N+](=O)[O-])c4)CC3)cc2)c1)C1CCCC1 | inconclusive [inhibitor, single point] | –
43 | CCOC(=O)Cc1csc(NC(=O)Nc2ccc(Cl)cc2)n1 | active: 16.4 µM | –
44 | COc1ccc(CCNC(=O)COC(=O)c2cc(OC)c(OC)cc2OC)cc1OC | inactive | –
45 | COC(=O)c1nn(-c2nc(-c3cccc(OC)c3)cc(C(F)(F)F)n2)cc1[N+](=O)[O-] | inactive | –
46 | C/C(=N\NC(=O)COc1ccc(C(C)(C)C)cc1)c1ccc(OC(F)F)cc1 | inconclusive [inhibitor, single point] | –
47 | COc1ccc(C(=O)NCCn2cc(SCC(=O)Nc3ccc4c(c3)OCCO4)c3ccccc32)cc1 | active: 20.6 µM | –
48 | C=CCNC(=O)C1CCCN(S(=O)(=O)c2ccc(-n3cnnn3)cc2)C1 (stereo not drawn) | inactive | –
49 | O=C(Nc1nc2ccccc2[nH]1)c1cccc([N+](=O)[O-])c1 | inconclusive [inhibitor, single point] | –
50 | Cc1ccc(NC(=O)Cn2cc(S(=O)(=O)c3ccccc3)c(=O)c3cc(F)ccc32)cc1 | inactive | –

Row | SMILES | Potency | activity change, negative = growth inhibition
51 | CCN(CC)S(=O)(=O)c1cccc(NC2=NCC(C)S2)c1 (stereo not drawn) | inactive | –
52 | CC(=O)N1CCC(C(=O)N2c3ccccc3N=C(c3ccc(C(F)(F)F)cc3)C2C(=O)NC(C)C)CC1 (stereo not drawn) | inactive | –
53 | O=C(CCNC(=O)c1ccc([N+](=O)[O-])cc1)Nc1ccc(Cl)c(S(=O)(=O)N2CCOCC2)c1 | inconclusive [inhibitor, single point] | –
54 | Cc1ccccc1-n1ccnc1SCC(=O)Nc1cccc(S(=O)(=O)NC2=NCCC2)c1 | inconclusive [inhibitor, partial curve] | –
55 | CC(C)CCNC(=O)c1c(CSc2ccc(Cl)cc2)noc1C(=O)NCc1ccccc1 | inactive | –
56 | CCC(Oc1ccccc1F)C(=O)Nc1cc(-c2ccccc2)no1 (stereo not drawn) | inconclusive [inhibitor, single point] | –
57 | COCC(=O)N1CCC2(CC1)CCN(c1ccc(-c3ccccc3)cc1)CC2 | active: 0.206 µM | –
58 | Cc1cccc(NS(=O)(=O)c2ccc(-c3cnc(C4CC4)o3)cc2)c1C | active: 0.0103 µM | –
59 | OC(COCc1ccc2c(c1)OCO2)CN1CCC(Cc2ccccc2)CC1 (stereo not drawn) | inconclusive [inhibitor, single point] | –
60 | O=C(Nc1cccc(S(=O)(=O)N2CCCCC2)c1)c1cccs1 | inconclusive [inhibitor, partial curve, poor fit] | –
61 | CC(C)c1ccc(C(CC(=O)c2ccc(Cl)cc2)C(=O)O)cc1 (stereo not drawn) | inactive | –
62 | CCOc1ccccc1NC(=O)CSc1c2c(nc3ccc(Cl)cc13)CCCC2 | inconclusive [inhibitor, single point] | –
63 | CC1(C(=O)NCc2ccco2)Cc2c(-c3ccccc3)ccnc2O1 (stereo not drawn) | active: 2.31 µM | –
64 | CC(C)c1cc(C(=O)O)c2cnn(C(C)C)c2n1 | inconclusive [inhibitor, single point] | –
65 | COC(=O)CN1C(=S)N(C)C(=O)/C1=C/c1cccs1 | inconclusive [inhibitor, single point] | –
66 | Cc1ccc(-c2nc(CS(=O)CC(=O)NCCN3CCCCCC3)c(C)o2)cc1 (stereo not drawn) | – | inconclusive: -35.4% [inhibitor]
67 | O=[N+]([O-])c1ccc(-c2ccn[nH]2)o1 | inactive | –
68 | CC(C)OC(=S)N/C(=N\S(=O)(=O)c1ccccc1)c1ccccc1 | inactive | –
69 | C=CCn1cc(/C=C2/NC(=O)NC2=O)c2ccccc21 | inconclusive [inhibitor, partial curve] | –
70 | COc1cc(C=C(C#N)c2ccc([N+](=O)[O-])cc2)ccc1O | inconclusive [inhibitor, single point] | –
71 | COc1cccc(NC(=O)C2COc3ccccc3O2)c1 (stereo not drawn) | inconclusive [inhibitor, single point] | –
72 | COC(=O)c1cc(NC(=O)c2c(F)c(F)c(F)c(F)c2F)cc(C(=O)OC)c1 | inconclusive [inhibitor, single point] | –
73 | Cc1cccc(C)c1NC(=S)NC(=O)c1ccc(Br)o1 | inconclusive [inhibitor, single point] | –

From PubChem BioAssay AID686978 (National Center for Advancing Translational Sciences (NCATS), 2013)
